Results reported in EPA's CvTdb concentration-time database.
Further values from the same series stand in other lists.

Assays:
Test in all cases: concentration in plasma after dosing
Rat [1] = conditions: dosed: Fluorotelomer alcohol 8+2, 80 mg/kg, oral, Female, Harlan Sprague Dawley
Rat [2] = conditions: dosed: Fluorotelomer alcohol 8+2, 48 mg/kg, oral, Male, Harlan Sprague Dawley
Rat [3] = conditions: 3 h; dosed: Fluorotelomer alcohol 8+2; 40 mg/kg; oral; Female; Harlan Sprague Dawley
Rat [4] = conditions: 1 h; dosed: Fluorotelomer alcohol 8+2; 80 mg/kg; oral; Female; Harlan Sprague Dawley
Rat [5] = conditions: 12 h; dosed: Fluorotelomer alcohol 8+2; 24 mg/kg; oral; Male; Harlan Sprague Dawley
Rat [6] = system: Rat
Rat [7] = conditions: 9 h; dosed: Fluorotelomer alcohol 8+2; 160 mg/kg; oral; Female; Harlan Sprague Dawley
Rat [8] = conditions: 9 h; dosed: Fluorotelomer alcohol 8+2; 24 mg/kg; oral; Male; Harlan Sprague Dawley
Rat [9] = conditions: dosed: Fluorotelomer alcohol 8+2, 80 mg/kg, oral, Female, Harlan Sprague Dawley; remark: listed apart in the source
Rat [10] = conditions: dosed: Fluorotelomer alcohol 8+2, 160 mg/kg, oral, Female, Harlan Sprague Dawley
Rat [11] = conditions: dosed: Isoeugenol, 17 mg/kg, iv, Male, F344/N
Rat [12] = conditions: dosed: Isoeugenol, 140 mg/kg, oral, Female, F344/N
Rat [13] = conditions: dosed: Isoeugenol, 17 mg/kg, iv, Female, F344/N
Rat [14] = conditions: dosed: Isoeugenol, 17 mg/kg, iv, Female, F344/N; remark: listed apart in the source
Rat [15] = conditions: dosed: Isoeugenol, 70 mg/kg, oral, Female, F344/N
Rat [16] = conditions: dosed: Isoeugenol, 140 mg/kg, oral, Male, F344/N

O=C(O)CCC(F)(F)C(F)(F)C(F)(F)C(F)(F)C(F)(F)C(F)(F)C(F)(F)F [Fluorotelomer acid 7+3]
concentration in plasma [ng/mL]
Conditions | Rat [1] | Rat [2] | Rat [9] | Rat [10]
0.75 h | 1290 | – | 1330 | –
1 h | – | 631 | – | 2640
24 h | – | 311 | – | 1540
48 h | 1330 | – | 970 | –

Conditions | concentration in plasma [ng/mL]
Rat [3] | 3430
Rat [4] | 1200
Rat [5] | 497
Rat [7] | 4450
Rat [8] | 175

concentration in plasma [ng/mL], Rat [6], oral
Conditions | Harlan Sprague Dawley | Harlan Sprague Dawley - this seems too small
0.25 h, dosed: Fluorotelomer alcohol 8+2, 24 mg/kg, Male | 20.1 | –
0.25 h, dosed: Fluorotelomer alcohol 8+2, 40 mg/kg, Female | 53.3 | –
0.25 h, dosed: Fluorotelomer alcohol 8+2, 48 mg/kg, Male | 45.2 | –
0.25 h, dosed: Fluorotelomer alcohol 8+2, 80 mg/kg, Female | 76.5 | –
0.25 h, dosed: Fluorotelomer alcohol 8+2, 160 mg/kg, Female | 79.2 | –
0.5 h, dosed: Fluorotelomer alcohol 8+2, 24 mg/kg, Male | 267 | 137
0.5 h, dosed: Fluorotelomer alcohol 8+2, 40 mg/kg, Female | 495 | –
0.5 h, dosed: Fluorotelomer alcohol 8+2, 48 mg/kg, Male | 301 | –
0.5 h, dosed: Fluorotelomer alcohol 8+2, 80 mg/kg, Female | 650 | –
0.5 h, dosed: Fluorotelomer alcohol 8+2, 160 mg/kg, Female | 524 | –
0.75 h, dosed: Fluorotelomer alcohol 8+2, 24 mg/kg, Male | 476 | –
0.75 h, dosed: Fluorotelomer alcohol 8+2, 40 mg/kg, Female | 1030 | –
0.75 h, dosed: Fluorotelomer alcohol 8+2, 48 mg/kg, Male | 655 | –
0.75 h, dosed: Fluorotelomer alcohol 8+2, 80 mg/kg, Female | 1330 | –
0.75 h, dosed: Fluorotelomer alcohol 8+2, 160 mg/kg, Female | 857 | –
1 h, dosed: Fluorotelomer alcohol 8+2, 24 mg/kg, Male | 503 | –
1 h, dosed: Fluorotelomer alcohol 8+2, 40 mg/kg, Female | 1310 | –
1 h, dosed: Fluorotelomer alcohol 8+2, 48 mg/kg, Male | 959 | –
1 h, dosed: Fluorotelomer alcohol 8+2, 80 mg/kg, Female | 1530 | –
1 h, dosed: Fluorotelomer alcohol 8+2, 160 mg/kg, Female | 3450 | –
3 h, dosed: Fluorotelomer alcohol 8+2, 24 mg/kg, Male | 1670 | –
3 h, dosed: Fluorotelomer alcohol 8+2, 40 mg/kg, Female | 3140 | –
3 h, dosed: Fluorotelomer alcohol 8+2, 48 mg/kg, Male | 1440 | –
3 h, dosed: Fluorotelomer alcohol 8+2, 80 mg/kg, Female | 4220 | –
3 h, dosed: Fluorotelomer alcohol 8+2, 160 mg/kg, Female | 8960 | –
5 min, dosed: Fluorotelomer alcohol 8+2, 24 mg/kg, Male | 0.717 | –
5 min, dosed: Fluorotelomer alcohol 8+2, 48 mg/kg, Male | 1.09 | –
6 h, dosed: Fluorotelomer alcohol 8+2, 24 mg/kg, Male | 1130 | –
6 h, dosed: Fluorotelomer alcohol 8+2, 40 mg/kg, Female | 2650 | –
6 h, dosed: Fluorotelomer alcohol 8+2, 48 mg/kg, Male | 3100 | –
6 h, dosed: Fluorotelomer alcohol 8+2, 80 mg/kg, Female | 5470 | –
6 h, dosed: Fluorotelomer alcohol 8+2, 160 mg/kg, Female | 8210 | –
9 h, dosed: Fluorotelomer alcohol 8+2, 24 mg/kg, Male | 820 | –
9 h, dosed: Fluorotelomer alcohol 8+2, 40 mg/kg, Female | 1830 | –
9 h, dosed: Fluorotelomer alcohol 8+2, 48 mg/kg, Male | 495 | –
9 h, dosed: Fluorotelomer alcohol 8+2, 80 mg/kg, Female | 3540 | –
9 h, dosed: Fluorotelomer alcohol 8+2, 160 mg/kg, Female | 1620 | –
12 h, dosed: Fluorotelomer alcohol 8+2, 24 mg/kg, Male | 792 | –
12 h, dosed: Fluorotelomer alcohol 8+2, 40 mg/kg, Female | 1500 | –
12 h, dosed: Fluorotelomer alcohol 8+2, 48 mg/kg, Male | 853 | –
12 h, dosed: Fluorotelomer alcohol 8+2, 80 mg/kg, Female | 2430 | –
12 h, dosed: Fluorotelomer alcohol 8+2, 160 mg/kg, Female | 1010 | –
24 h, dosed: Fluorotelomer alcohol 8+2, 24 mg/kg, Male | 451 | –
24 h, dosed: Fluorotelomer alcohol 8+2, 40 mg/kg, Female | 1010 | –
24 h, dosed: Fluorotelomer alcohol 8+2, 48 mg/kg, Male | 561 | –
24 h, dosed: Fluorotelomer alcohol 8+2, 80 mg/kg, Female | 1590 | –
24 h, dosed: Fluorotelomer alcohol 8+2, 160 mg/kg, Female | 2580 | –
48 h, dosed: Fluorotelomer alcohol 8+2, 24 mg/kg, Male | 278 | –
48 h, dosed: Fluorotelomer alcohol 8+2, 40 mg/kg, Female | 183 | –
48 h, dosed: Fluorotelomer alcohol 8+2, 48 mg/kg, Male | 468 | –
48 h, dosed: Fluorotelomer alcohol 8+2, 80 mg/kg, Female | 1050 | –
48 h, dosed: Fluorotelomer alcohol 8+2, 160 mg/kg, Female | 2330 | –
192 h, dosed: Fluorotelomer alcohol 8+2, 40 mg/kg, Female | 99.7 | –
192 h, dosed: Fluorotelomer alcohol 8+2, 48 mg/kg, Male | 73.9 | –
192 h, dosed: Fluorotelomer alcohol 8+2, 80 mg/kg, Female | 346 | –
192 h, dosed: Fluorotelomer alcohol 8+2, 160 mg/kg, Female | 82 | –

C/C=C/c1ccc(O)c(OC)c1 [Isoeugenol]
Conditions | concentration in plasma [ng/mL]
Rat [11], 4 h | 17.6
Rat [11], 5 min | 7810
Rat [12], 5 h | 489
Rat [12], 10 min | 1690
Rat [13], 1.5 h | 166
Rat [13], 20 min | 1800
Rat [14], 0.75 h | 429
Rat [14], 2.5 h | 131
Rat [15], 1.5 h | 236
Rat [15], 2 min | 2050
Rat [16], 2 h | 634
Rat [16], 10 min | 1210

concentration in plasma [ng/mL], Rat [6], dosed: Isoeugenol, F344/N
Conditions | Female | Male
0.5 h, 17 mg/kg, iv | 1100 | 1100
0.5 h, 70 mg/kg, oral | 450 | 174
0.5 h, 140 mg/kg, oral | 1670 | 830
0.75 h, 17 mg/kg, iv | 386 | 370
0.75 h, 70 mg/kg, oral | – | 192
1 h, 17 mg/kg, iv | 271 | 219
1 h, 70 mg/kg, oral | 459 | 344
1 h, 140 mg/kg, oral | 640 | –
1.5 h, 17 mg/kg, iv | 179 | –
1.5 h, 140 mg/kg, oral | – | 161
2 h, 17 mg/kg, iv | 121 | 93.6
2 h, 70 mg/kg, oral | 138 | 45.5
2 min, 17 mg/kg, iv | 10400 | 9690
2 min, 70 mg/kg, oral | 3200 | –
2 min, 140 mg/kg, oral | 1900 | 193
2.5 h, 17 mg/kg, iv | 159 | 48.9
3 h, 17 mg/kg, iv | 80.3 | 41.4
3 h, 70 mg/kg, oral | 531 | 169
3 h, 140 mg/kg, oral | 888 | 643
4 h, 17 mg/kg, iv | 31.5 | 20.5
4 h, 70 mg/kg, oral | 252 | 148
4 h, 140 mg/kg, oral | 555 | 452
5 h, 17 mg/kg, iv | 15.8 | 15
5 h, 70 mg/kg, oral | 239 | –
5 h, 140 mg/kg, oral | 708 | 378
5 min, 17 mg/kg, iv | 6950 | 7030
5 min, 70 mg/kg, oral | 1020 | –
5 min, 140 mg/kg, oral | 8700 | 677
6 h, 17 mg/kg, iv | 17.2 | 17.6
6 h, 70 mg/kg, oral | 234 | –
6 h, 140 mg/kg, oral | 715 | 282
8 h, 70 mg/kg, oral | 191 | 127
8 h, 140 mg/kg, oral | 388 | 584
10 h, 140 mg/kg, oral | 321 | 101
10 min, 17 mg/kg, iv | 5000 | 3190
10 min, 70 mg/kg, oral | 931 | –
10 min, 140 mg/kg, oral | 3370 | 2590
20 min, 17 mg/kg, iv | 1780 | 2140
20 min, 70 mg/kg, oral | 768 | –
20 min, 140 mg/kg, oral | 1270 | 748
